Laboratory results from the RNAGym collection of RNA variant scans (doi:10.7554/elife.90254).
Read counts are not given, so values of variants with three or more changes are uncertain.

B1: LINE1-mini (parent)
chain: GGCAGAGCUCAACACAGCGUGGCAAAGUGGCUGUGGCUAGACUGCC

Variants of: B1
Experiment: self-cleavage, relative activity (ratio to wild type); higher = more cleavage; in vitro, sequencing; the parent is a self-cleaving ribozyme
For GGCAGAGCUCAACACAGCGUGGAAAAGUGGGUGUGGCUAGAGUGCC [C23A C31G C42G], the self-cleavage was 0.02. For GGCAGAGCUCAACACAGCGUGGGAAAGUGGCUGUAGCUAUAAUACC [C23G G35A G40U C42A G44A], the self-cleavage was 0.03. Work on GGCAGAGCUCAACACAGCGUGGUGAAGAGGCUGUGGCUAGACUGCC [C23U A24G U28A] yielded a self-cleavage of 1.14. GGCAGAGCUCAACACAGCGUGGAAAAGUGGCUGUGGCUAUAUUGCC [C23A G40U C42U] showed a self-cleavage of 0.08. With GGCAGAGCUCAACACAGCGUGGAAAAGUGGCUGUGGCUAUAGUGCC [C23A G40U C42G] the self-cleavage was 0.07. GGCAGAGCUCAACACAGCGUGGAAGAGUGGCUGUGGCUAGACUGUG [C23A A25G C45U C46G] gave a self-cleavage of 0.17. Variant GGCAGAGCUCAACACAGCGUGUCAAAAUCGCUGUGGCUAGACUGGC [G22U G27A G29C C45G] has a self-cleavage of 0.1. For GGCAGAGCUCAACACAGCGUGUUAAACUGUCUGUUGCUACACUGUC [G22U C23U G27C G30U G35U G40C C45U], the self-cleavage was 0.04. Variant GGCAGAGCUCAACACAGCGUGGGAAAGCGGCUGUGCCUCGACUGCC [C23G U28C G36C A39C] has a self-cleavage of 0.02. GGCAGAGCUCAACACAGCGUGGAAAAGUGGCUGAGACUAGACUGCU [C23A U34A G36A C46U] showed a self-cleavage of 0.01. For GGCAGAGCUCAACACAGCGUGGGAAAGUGGCUGUUUCUAGACUGCC [C23G G35U G36U], the self-cleavage was 0.07. With GGCAGAGCUCAACACAGCGUGUCAAAGUGGUAGUGGCUAGACUGCC [G22U C31U U32A] the self-cleavage was 0.01. For GGCAGAGCUCAACACAGCGUGGGAAAGUGACUGUGGCUAAACUGCC [C23G G30A G40A], the self-cleavage was 0.11. Work on GGCAGAGCUCAACACAGCGUGGGAAAUGGGCUGUCGAUAGACUGCC [C23G G27U U28G G35C C37A] yielded a self-cleavage of 0.06. In the case of GGCAGAGCUCAACACAGCGUGUCAAAGUAGUUGUGGCUUGACUGCC [G22U G29A C31U A39U], the self-cleavage is reported as 1.43. GGCAGAGCUCAACACAGCGUGGGAAAGUGGCUGUGGUUAGACUGCA [C23G C37U C46A] showed a self-cleavage of 0.03. For GGCAGAGCUCAACACAGCGUGGGAAAGUGGUUGUGGCUAGACUGCG [C23G C31U C46G], the self-cleavage was 0.06. For GGCAGAGCUCAACACAGCGUGGAAAAAUGGCUGUGGCUAGACUCCC [C23A G27A G44C], the self-cleavage was 0.57. GGCAGAGCUCAACACAGCGUGGGAACGUGGCUGUGGCUAGCCUGUC [C23G A26C A41C C45U] gave a self-cleavage of 0.05. Work on GGCAGAGCUCAACACAGCGUGGAUACGUGGCUGUGACUAGACUGCC [C23A A24U A26C G36A] yielded a self-cleavage of 0.35. For GGCAGAGCUCAACACAGCGUGGGAAAGUGGCAGUGGCCUGACUGCC [C23G U32A U38C A39U], the self-cleavage was 0. Variant GGCAGAGCUCAACACAGCGUGGGAAAGAGGCUGUGGCUAGACUGUC [C23G U28A C45U] has a self-cleavage of 1.32. GGCAGAGCUCAACACAGCGUGGAAAAGUGGCUGGGACUAGACUGCC [C23A U34G G36A] gave a self-cleavage of 0.04. With GGCAGAGCUCAACACAGCGUGGAACAGUUGCUGUGGCUAGACUGCC [C23A A25C G29U] the self-cleavage was 0.43. Work on GGCAGAGCUCAACACAGCGUGGAAAAGUGGUUGUGGCUAGACUGAC [C23A C31U C45A] yielded a self-cleavage of 0.68. In the case of GGCAGAGCUCAACACAGCGUGGUAGAACGGCUGUGGCUAGACUGCC [C23U A25G G27A U28C], the self-cleavage is reported as 1.2. GGCAGAGCUCAACACAGCGUGGAAAAGUGGCUGUGGCUACAUUGCG [C23A G40C C42U C46G] gave a self-cleavage of 0.09. Work on GGCAGAGCUCAACACAGCGUGUUAAGGUGGCUGUGGCUAGACUGCC [G22U C23U A26G] yielded a self-cleavage of 0.94. GGCAGAGCUCAACACAGCGUGGAACAAUGUCUGUGGCUAGACUGCC [C23A A25C G27A G30U] showed a self-cleavage of 0.32. In the case of GGCAGAGCUCAACACAGCGUGGAAAAGUGGCUUUAGCUAGACUGCC [C23A G33U G35A], the self-cleavage is reported as 0.33. GGCAGAGCUCAACACAGCGUGUAAAAGUGGCUGCGGCUAGAAUGCC [G22U C23A U34C C42A] gave a self-cleavage of 0.09. For GGCAGAGCUCAACACAGCGUGGAAAAGCGGCUCUGGCUAGACUGCC [C23A U28C G33C], the self-cleavage was 0.25. GGCAGAGCUCAACACAGCGUGGAAAAGUAGCUGUGGAUAUACUGCU [C23A G29A C37A G40U C46U] gave a self-cleavage of 0.07. Work on GGCAGAGCUCAACACAGCGUGGGAAAGUGGCUGUGGUUAGACUUCG [C23G C37U G44U C46G] yielded a self-cleavage of 0.01. In the case of GGCAGAGCUCAACACAGCGUGUCAAAUUGGCUUUGGCUAGACUGCC [G22U G27U G33U], the self-cleavage is reported as 0.06. For GGCAGAGCUCAACACAGCGUGGAAACGUGUCUGUGGCUAGACUGCC [C23A A26C G30U], the self-cleavage was 1.05. Work on GGCAGAGCUCAACACAGCGUGUCAAAUGGGCAGUGGUUAGACUGCC [G22U G27U U28G U32A C37U] yielded a self-cleavage of 0.02. GGCAGAGCUCAACACAGCGUGGAAAAGUGGCUUUAGCUAGGCUGCC [C23A G33U G35A A41G] gave a self-cleavage of 0.06. Work on GGCAGAGCUCAACACAGCGUGUCAAAAUGGCUCUGCCUAGACUGCC [G22U G27A G33C G36C] yielded a self-cleavage of 0.05. For GGCAGAGCUCAACACAGCGUGGAAAAGUUGCUGUGGCUAGAGUGCC [C23A G29U C42G], the self-cleavage was 0.03. Work on GGCAGAGCUCAACACAGCGUGGAAAAGUCGCUGUGCAUAGACUGCC [C23A G29C G36C C37A] yielded a self-cleavage of 0.11. With GGCAGAGCUCAACACAGCGUGGAAAAGAGGCUGUGGCUAUACUGCA [C23A U28A G40U C46A] the self-cleavage was 0.32. In the case of GGCAGAGCUCAACACAGCGUGUCAAAGUGCCUGUGGCUCGACUGCC [G22U G30C A39C], the self-cleavage is reported as 0.1. Work on GGCAGAGCUCAACACAGCGUGGAAAAGUGGCUUUGGCUAAACUGCC [C23A G33U G40A] yielded a self-cleavage of 0.11. GGCAGAGCUCAACACAGCGUGGGAAAGUGGCUAUGGCUAGACUCCC [C23G G33A G44C] showed a self-cleavage of 0.03. Work on GGCAGAGCUCAACACAGCGUGGAAAAGUAGCUGUGGCUAGACUGCA [C23A G29A C46A] yielded a self-cleavage of 1.54. Work on GGCAGAGCUCAACACAGCGUGUCAAAGUGACUAUGGCUAGACUGCC [G22U G30A G33A] yielded a self-cleavage of 0.48. With GGCAGAGCUCAACACAGCGUGGAACAGUGGCUGUGGCUAGACUUCC [C23A A25C G44U] the self-cleavage was 0.37. GGCAGAGCUCAACACAGCGUGGAAAAGUGGCUUUGGCUAGACUGCA [C23A G33U C46A] gave a self-cleavage of 0.95. For GGCAGAGCUCAACACAGCGUGGGAAAGUGGCUGUGGCUAGGCUGAC [C23G A41G C45A], the self-cleavage was 0.21. For GGCAGAGCUCAACACAGCGUGUCAAAGUGUCGGUGGCUAGACUGCC [G22U G30U U32G], the self-cleavage was 0.34. GGCAGAGCUCAACACAGCGUGGAAAAGUGGCAGUGGCUAGACAGCC [C23A U32A U43A] showed a self-cleavage of 0.06. With GGCAGAGCUCAACACAGCGUGGAAAAGUGGCUGUGUACAGACUGCC [C23A G36U C37A U38C] the self-cleavage was 0.03. GGCAGAGCUCAACACAGCGUGGAAAAUUGGCUGGGGCAAGACUGCC [C23A G27U U34G U38A] showed a self-cleavage of 0.28. Work on GGCAGAGCUCAACACAGCGUGGAAAGGUGGCUGUGGCUAGGCUGCC [C23A A26G A41G] yielded a self-cleavage of 0.48. GGCAGAGCUCAACACAGCGUGUCAAAGUGGAUGUGGGUAGACCGCC [G22U C31A C37G U43C] gave a self-cleavage of 0.15.
